In PubChem BioAssay AID360 (National Center for Advancing Translational Sciences (NCATS), 2006) one finds Potency data, which are given here for 62 compounds.

Out of some 48,000 compounds screened, about 550 (1.1%) were called active. About 4% were inconclusive and are not listed. No stated cut-off is given here; in the data, active means potency below about 15 µM; inconclusive means mostly about 16 µM to 33 µM; inactive means weaker than that. The list shows a part of the results.
Potency means the concentration at half of the fitted maximal effect.

Sequence of UniProt P04062 (P04062 whole entry, looked up): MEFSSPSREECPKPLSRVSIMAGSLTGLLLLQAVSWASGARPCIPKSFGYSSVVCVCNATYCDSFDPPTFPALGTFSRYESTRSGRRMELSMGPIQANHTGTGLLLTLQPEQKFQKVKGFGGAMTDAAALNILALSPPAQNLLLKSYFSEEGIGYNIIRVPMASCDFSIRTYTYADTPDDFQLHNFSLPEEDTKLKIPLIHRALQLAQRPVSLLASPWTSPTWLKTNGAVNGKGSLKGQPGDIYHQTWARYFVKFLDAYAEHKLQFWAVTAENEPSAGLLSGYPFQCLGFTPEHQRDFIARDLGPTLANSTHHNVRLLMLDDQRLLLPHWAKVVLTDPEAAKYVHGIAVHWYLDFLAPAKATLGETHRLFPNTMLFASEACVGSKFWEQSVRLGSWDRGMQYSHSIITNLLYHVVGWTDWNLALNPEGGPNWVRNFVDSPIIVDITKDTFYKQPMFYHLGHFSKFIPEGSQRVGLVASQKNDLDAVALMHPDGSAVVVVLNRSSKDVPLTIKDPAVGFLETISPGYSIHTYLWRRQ

The experiment deals with Lysosomal acid glucosylceramidase (Homo sapiens) (UniProt P04062). Nature of the experiment: Glucocerebrosidase.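 Further: the screen sought inhibitors.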 The settings on record: purified enzyme, resorufin glucoside fluorescence (screen aimed at inhibitors), 20 min; series mostly up to 77 µM. An outline of the steps:
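Compounds titrated against 0.2 nM normal enzyme, 30 uM resorufin beta-D-glucopyranoside substrate, citrate/phosphate buffer with taurocholate and tween-20, pH 5.9. Reaction ran 20 min at room temperature; fluorescence (Ex 548/Em 600) gave AC50.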
With `COc1ccc(-c2coc3cc(O)ccc3c2=O)cc1OC`, the Potency was inactive: > 76.9 µM.
With `CCCCc1ccc(-c2ccc(C)cc2O)nc1` the figure was inactive: > 76.9 µM; with `Cn1c(=O)c2c(nc(CN3CCN(c4cccc(Cl)c4)CC3)n2CCc2ccccc2)n(C)c1=O`, inactive: > 76.9 µM; with `O=S(=O)(NCCc1ccccn1)c1cccs1`, inactive: > 76.9 µM.
With `C=CCn1c(SCC(=O)NC2CCS(=O)(=O)C2)nc2scc(C3CC3)c2c1=O` (configuration not stated) the figure was inactive: > 76.9 µM; with `O=C(CSc1nc(O)cc(=O)n1-c1ccccc1)N1CCCCC1`, inactive: > 76.9 µM; with `Cc1cccc(C)c1OCCOCCN1CCN(C)CC1`, inactive: > 76.9 µM.
With `COc1ccc(CCNS(=O)(=O)c2cccs2)cc1` the figure was inactive: > 76.9 µM; with `CCn1c(COc2ccccc2)nnc1SCC(=O)C(C)(C)C`, inactive: > 76.9 µM; with `CCn1c(COc2ccc(Cl)c(C)c2)nnc1SCC(=O)N1CCCC1`, inactive: > 76.9 µM.
On to `Cc1ccc(NC(=O)COC(=O)CCc2c[nH]c(=O)[nH]2)cc1`, for which the Potency is inactive: > 76.9 µM.
For the compound `Cc1nnc(SCSc2nnc(C)s2)s1`, the Potency is inactive: > 76.9 µM.
For `Cn1c(=O)n(CCCOc2ccc(Cl)cc2)c2ccccc21` the value was inactive: > 76.9 µM; for `COC(=O)c1cc(OC)c(OC)cc1NC(=O)c1c(-c2ccccc2)noc1C`, inactive: > 76.9 µM; for `COc1ccc(N2C(=O)C3CCCN3C2c2ccc(C)cc2)cc1Cl` (configuration not stated), inactive: > 76.9 µM.
For `O=C1NCCCc2c1no[n+]2[O-]` the value was inactive: > 76.9 µM; for `CCCCCCn1c(SCC(C)C)nc2c1c(=O)[nH]c(=O)n2C`, inactive: > 76.9 µM.
With `CCCC(=O)Nc1cnc(NC(=O)c2cccc(F)c2)cc1C` the figure was inactive: > 76.9 µM; with `C1CCN(c2nc(N3CCCC3)nc(N3CCNCC3)n2)C1`, inactive: > 76.9 µM; with `Cc1ccc2cccc(S(=O)(=O)Nc3ccc4c(c3)OCO4)c2n1`, “inactive”.
As for `CCC(=O)Nn1c(C)nnc1C`, the Potency was inactive: > 76.9 µM.
For `COc1cc(C2C(C#N)=C(C)NC3=C2C(=O)CC(C)(C)C3)cc(OC)c1O` (configuration not stated) the value was inactive: > 76.9 µM; for `COc1cc(C(=O)NCc2ccc3c(c2)OCO3)ccc1OCc1c(C)noc1C`, inactive: > 76.9 µM; for `COc1cc(C(C(=O)NC(C)(C)C)N(Cc2ccccc2)C(=O)c2cnccn2)cc(OC)c1OC` (configuration not stated), inactive: > 76.9 µM.
With `COc1ccc(S(=O)(=O)N2CCOCC2)cc1C(C)C` the figure was inactive: > 76.9 µM; with `Cc1ccc(Cc2c(C)nc3nc(SCC(=O)NCc4ccco4)nn3c2C)cc1`, inactive: > 76.9 µM.
As to `COc1ccc(NC(=O)N2CCN(c3cccc(C(F)(F)F)c3)CC2)cc1`, the Potency is inactive: > 76.9 µM.
With `CCCCN(CCCC)Cc1ccc(N)cc1` the figure was inactive: > 76.9 µM; with `NC(=O)c1ccc(-n2nnnc2SCC(=O)Nc2ccc(N3CCOCC3)c(Cl)c2)cc1`, inactive: > 76.9 µM; with `Cc1ccc(-c2nn(C)c(=O)c3ccccc23)cc1CO`, inactive: > 76.9 µM.
With `C=CCn1c(SCC(=O)Nc2c(C)cccc2C)nnc1-c1ccncc1` the figure was inactive: > 76.9 µM.
For `O=C(/C=N/O)NCCCn1ccnc1` the value was inactive: > 76.9 µM; for `O=C(CSc1nnc(Nc2ccccc2)s1)NCc1ccco1`, inactive: > 76.9 µM; for `O=C1C2C3C=CC(C3)C2C(=O)N1c1ccc2c(c1)CCC2` (configuration not stated), inactive: > 76.9 µM.
In the case of `O=S(=O)(Nc1ccc(N2CCOCC2)cc1)c1cccs1`, the Potency was inactive: > 76.9 µM.
With `CCCCSc1nnc(-c2ccc(C)cc2)o1` the figure was inactive: > 76.9 µM.
With `Cc1c(C(=O)N2CCN(c3ccc(F)cc3)CC2)sc2nc(-c3ccccc3)cn12` the figure was inactive: > 76.9 µM; with `Cc1cccc2c(=O)cc(C)n(CC(=O)N3CCCCC3)c12`, inactive: > 76.9 µM; with `Cc1onc(-c2ccccc2Cl)c1C(=O)NCCN1CCOCC1`, inactive: > 76.9 µM.
With `COc1ccc(C2=NOC(C(=O)NC(C)(C)C)C2)cc1` (configuration not stated) the figure was inactive: > 76.9 µM; with `O=C(NCc1ccco1)c1ccc(CS(=O)(=O)c2cccc(C(F)(F)F)c2)o1`, inactive: > 76.9 µM; with `COc1cc(NC(=O)c2ccccc2)c(OC)cc1NC(=O)CN1CCOCC1`, inactive: > 76.9 µM.
In the case of `Cc1ccc(Cc2c(C)nc3c(C(=O)O)cnn3c2C)cc1`, the Potency was inactive: > 76.9 µM.
For `CCCCn1c(=O)[nH]c(=O)c2c1nc(-c1ccncc1)n2CCOC` the value was inactive: > 76.9 µM; for `O=c1cnnc(NCc2ccccc2)[nH]1`, inactive: > 76.9 µM.
With `O=C(O)C1CSC(c2ccncc2)N1` (configuration not stated) the figure was inactive: > 76.9 µM.
For `COc1ccc(-c2n[nH]c(C)c2-c2ccc(Cl)cc2)c(O)c1OC`, the Potency was inactive: > 76.9 µM.
As for `O=S(=O)(NCc1cccs1)c1cccc2cccnc12`, the Potency was inactive: > 76.9 µM.
For `COc1ccc(C2(CCN)CC(C)N(C)CC2C)cc1` (configuration not stated) the value was inactive: > 76.9 µM; for `O=C(O)c1coc2ccccc12`, inactive: > 76.9 µM; for `O=C1NC2(CCCCC2)N=C1c1ccc(F)cc1`, inactive: > 76.9 µM.
For `COC(=O)c1ccc(NC(=O)CN2CCN(c3ccccc3)CC2)cc1` the value was inactive: > 76.9 µM.
For `Cn1nnnc1SCC(=O)N1CCc2ccccc2C1`, the Potency was inactive: > 76.9 µM.
With `O=C(CSc1nccn1Cc1ccccc1)Nc1nccs1` the figure was inactive: > 76.9 µM.
With `O=C(NCCCO)c1nc2ccccc2s1` the figure was inactive: > 76.9 µM.
With `CSc1nc2ccccc2n1CC(=O)N1CCCCC1` the figure was inactive: > 76.9 µM; with `CCn1cc(C(=O)NC2CCCCCC2)c2cc(OC)c(OC)cc2c1=O`, inactive: > 76.9 µM; with `CN(C)CCCN1C(=O)c2oc3ccccc3c(=O)c2C1c1cccs1` (configuration not stated), inactive: > 76.9 µM.
In the case of `O=C(c1cnn2c(C(F)F)cc(-c3ccccc3)nc12)N1CCN2CCCC2C1` (configuration not stated), the Potency was inactive: > 76.9 µM.
For `O=C1CC(c2ccccc2)C(=O)N1c1cccc(O)c1` (configuration not stated) the value was inactive: > 76.9 µM.
With `COc1ccc2cc(C)c(SCC(=O)Nc3cc(C)on3)nc2c1` the figure was inactive: > 76.9 µM; with `CC(C)(C)NC(=O)CN(Cc1cccnc1)C(=O)c1csnn1`, inactive: > 76.9 µM.
